Test results as given in patent publication US20240076343A1.

B1: 1H3-hIgG1-L6-hIL-2 (I92D/F42W) (protein)
heavy: EVQLVESGGGLVQPGRSLKLSCAVSGFTFSDYAMAWVRQAPKKGLEWVATISYDGSRTYYRDSVKGRFTISRDNAKITLYLQMDSLRSEDTATYYCARHGSGYFDYWGQGVMVTVSS[not shown - about 450 residues with a human IgG1 Fc and changes]
light: DTVLTQSPALAVSPGERVTISCRASESVRTGVHWYQQKPGQQPKLLIYGASNLESGVPARFSGSGSGTDFTLTIDPVEADDTATYFCQQSWNDPFTFGSGTKLEIKRTVAAPSVFIFPPSDEQLKSGTASVVCLLNNFYPREAKVQWKVDNALQSGNSQESVTEQDSKDSTYSLSSTLTLSKADYEKHKVYACEVTHQGLSSPVTKSFNRGEC
B2: 1H3-hIgG1-L6-hIL-2 (I92D/F42Y) (protein)
heavy: EVQLVESGGGLVQPGRSLKLSCAVSGFTFSDYAMAWVRQAPKKGLEWVATISYDGSRTYYRDSVKGRFTISRDNAKITLYLQMDSLRSEDTATYYCARHGSGYFDYWGQGVMVTVSS[not shown - about 450 residues with a human IgG1 Fc and changes]
light: B1 light
B3: 1H3-hIgG1-L6-hIL-2 (I92D/F42V) (protein)
heavy: EVQLVESGGGLVQPGRSLKLSCAVSGFTFSDYAMAWVRQAPKKGLEWVATISYDGSRTYYRDSVKGRFTISRDNAKITLYLQMDSLRSEDTATYYCARHGSGYFDYWGQGVMVTVSS[not shown - about 450 residues with a human IgG1 Fc and changes]
light: B1 light
B4: 1H3-hIgG1-L6-hIL-2 (I92D/Y45A) (protein)
heavy: EVQLVESGGGLVQPGRSLKLSCAVSGFTFSDYAMAWVRQAPKKGLEWVATISYDGSRTYYRDSVKGRFTISRDNAKITLYLQMDSLRSEDTATYYCARHGSGYFDYWGQGVMVTVSS[not shown - about 450 residues with a human IgG1 Fc and changes]
light: B1 light
B5: 1H3-hIgG1-L6-hIL-2 (I92D/Y45Q) (protein)
heavy: EVQLVESGGGLVQPGRSLKLSCAVSGFTFSDYAMAWVRQAPKKGLEWVATISYDGSRTYYRDSVKGRFTISRDNAKITLYLQMDSLRSEDTATYYCARHGSGYFDYWGQGVMVTVSS[not shown - about 450 residues with a human IgG1 Fc and changes]
light: B1 light
B6: 1H3-hIgG1-L6-hIL-2 (I92D/Y45G) (protein)
heavy: EVQLVESGGGLVQPGRSLKLSCAVSGFTFSDYAMAWVRQAPKKGLEWVATISYDGSRTYYRDSVKGRFTISRDNAKITLYLQMDSLRSEDTATYYCARHGSGYFDYWGQGVMVTVSS[not shown - about 450 residues with a human IgG1 Fc and changes]
light: B1 light
B7: 1H3-hIgG1-L6-hIL-2 (I92D/Y45M) (protein)
heavy: EVQLVESGGGLVQPGRSLKLSCAVSGFTFSDYAMAWVRQAPKKGLEWVATISYDGSRTYYRDSVKGRFTISRDNAKITLYLQMDSLRSEDTATYYCARHGSGYFDYWGQGVMVTVSS[not shown - about 450 residues with a human IgG1 Fc and changes]
light: B1 light
B8: 1H3-hIgG1-L6-hIL-2 (I92D/Y45F) (protein)
heavy: EVQLVESGGGLVQPGRSLKLSCAVSGFTFSDYAMAWVRQAPKKGLEWVATISYDGSRTYYRDSVKGRFTISRDNAKITLYLQMDSLRSEDTATYYCARHGSGYFDYWGQGVMVTVSS[not shown - about 450 residues with a human IgG1 Fc and changes]
light: B1 light
B9: 1H3-hIgG1-L6-hIL-2 (I92D/Y45S) (protein)
heavy: EVQLVESGGGLVQPGRSLKLSCAVSGFTFSDYAMAWVRQAPKKGLEWVATISYDGSRTYYRDSVKGRFTISRDNAKITLYLQMDSLRSEDTATYYCARHGSGYFDYWGQGVMVTVSS[not shown - about 450 residues with a human IgG1 Fc and changes]
light: B1 light
B10: 1H3-hIgG1-L6-hIL-2 (R38E/D20H) (protein)
heavy: EVQLVESGGGLVQPGRSLKLSCAVSGFTFSDYAMAWVRQAPKKGLEWVATISYDGSRTYYRDSVKGRFTISRDNAKITLYLQMDSLRSEDTATYYCARHGSGYFDYWGQGVMVTVSS[not shown - about 450 residues with a human IgG1 Fc and changes]
light: B1 light
B11: 1H3-hIgG1-L6-hIL-2 (R38E/D20S) (protein)
heavy: EVQLVESGGGLVQPGRSLKLSCAVSGFTFSDYAMAWVRQAPKKGLEWVATISYDGSRTYYRDSVKGRFTISRDNAKITLYLQMDSLRSEDTATYYCARHGSGYFDYWGQGVMVTVSS[not shown - about 450 residues with a human IgG1 Fc and changes]
light: B1 light
B12: 1H3-hIgG1-L6-hIL-2 (F42A/N88R) (protein)
heavy: EVQLVESGGGLVQPGRSLKLSCAVSGFTFSDYAMAWVRQAPKKGLEWVATISYDGSRTYYRDSVKGRFTISRDNAKITLYLQMDSLRSEDTATYYCARHGSGYFDYWGQGVMVTVSS[not shown - about 450 residues with a human IgG1 Fc and changes]
light: B1 light
B13: 1H3-hIgG1-L6-hIL-2 (F42A/N88D) (protein)
heavy: EVQLVESGGGLVQPGRSLKLSCAVSGFTFSDYAMAWVRQAPKKGLEWVATISYDGSRTYYRDSVKGRFTISRDNAKITLYLQMDSLRSEDTATYYCARHGSGYFDYWGQGVMVTVSS[not shown - about 450 residues with a human IgG1 Fc and changes]
light: B1 light
B14: 1H3-hIgG1-L6-hIL-2 (R38E/I92K) (protein)
heavy: EVQLVESGGGLVQPGRSLKLSCAVSGFTFSDYAMAWVRQAPKKGLEWVATISYDGSRTYYRDSVKGRFTISRDNAKITLYLQMDSLRSEDTATYYCARHGSGYFDYWGQGVMVTVSS[not shown - about 450 residues with a human IgG1 Fc and changes]
light: B1 light

The binders below were run against intermediate affinity hIL-2 receptor complex (IL-2Rβγ) (human) (UniProt P14784) (assay: cell-based or functional assay).

| Binder | Fold change from hIL-2 (TF1 + IL-2Rβ), pSTAT5 fixed conc. | Fold change from rhIL-2 (TF1 + IL-2Rβ), pSTAT5 titration |
| --- | --- | --- |
| B1 | 4 fold |  |
| B2 | 3 fold |  |
| B3 | 3 fold |  |
| B4 | 3 fold |  |
| B5 | 3 fold |  |
| B6 | 3 fold |  |
| B7 | 3 fold |  |
| B8 | 3 fold |  |
| B9 | 3 fold |  |
| B10 | 5 fold |  |
| B11 | 3 fold | 25 fold |
| B12 | 3 fold | 34 fold |
| B13 | 3 fold |  |
| B14 | 3 fold |  |

What follows are binders tested against high-affinity hIL-2 receptor (IL-2Rαβγ) (human) (UniProt P01589) (assay: cell-based or functional assay).

| Binder | Fold change from hIL-2 (NK-92), pSTAT5 fixed conc. | Fold change from rhIL-2 (NK-92), pSTAT5 titration |
| --- | --- | --- |
| B1 | 18 fold |  |
| B2 | 22 fold |  |
| B3 | 30 fold |  |
| B4 | 11 fold |  |
| B5 | 25 fold |  |
| B6 | 20 fold |  |
| B7 | 14 fold |  |
| B8 | 10 fold |  |
| B9 | 11 fold |  |
| B10 | 17 fold |  |
| B11 | 17 fold | > 10000 fold |
| B12 | 18 fold | > 10000 fold |
| B13 | 18 fold |  |
| B14 | 24 fold |  |

The binders below were run against high-affinity hIL-2 receptor (IL-2Rαβγ) on NK-92 cells (human) (UniProt P01589) (assay: cell-based or functional assay).

| Binder | Fold change from rhIL-2 (NK-92) | Agonistic Activity (NK-92) |
| --- | --- | --- |
| B1 | 405 fold |  |
| B2 | 58 fold |  |
| B3 | 1080 fold | 60% |
| B4 | 15 fold |  |
| B5 | 53 fold |  |
| B6 | 41 fold |  |
| B7 | 7 fold |  |
| B8 | 33 fold |  |
| B9 | 20 fold |  |
| B10 | 13 fold |  |
| B11 | > 10000 fold | 50% |
| B12 | 8350 fold | 70% |
| B13 | 1970 fold |  |
| B14 | > 10000 fold | 70% |

What follows are binders tested against intermediate affinity hIL-2 receptor (hIL-2Rβγ) on TF1+IL-2Rβ cells (human) (UniProt P14784) (assay: cell-based or functional assay).

| Binder | Fold change from rhIL-2 (TF1 + IL-2Rβ) | Agonistic Activity (TF1 + IL-2Rβ) |
| --- | --- | --- |
| B1 | 3950 fold |  |
| B2 | 106 fold |  |
| B3 | 343 fold |  |
| B4 | 285 fold |  |
| B5 | 80 fold |  |
| B6 | 91 fold |  |
| B7 | 146 fold |  |
| B8 | 1650 fold |  |
| B9 | 306 fold |  |
| B10 | 2940 fold | 40% |
| B11 | 626 fold |  |
| B12 | 1460 fold |  |
| B13 | 86 fold |  |
| B14 | 239 fold |  |
